Test results published in the supplement of paper PMC4967469.
By IC50 is meant the dose at which the fit gives 50% viability; fits outside the tested doses are given as limits. AUC, from the same fit, is the share of area under the viability curve across the 256-fold dose range: 1 means no effect, lower means more sensitive.

Compound: Cn1c(=O)n(-c2ccc(C(C)(C)C#N)cc2)c2c3cc(-c4cnc5ccccc5c4)ccc3ncc21 [NVP-BEZ235]
Assay: Viability of human cancer cell lines after 72 h of drug (GDSC screen)
Protocol: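 Human cancer cell lines in 384-well plates, medium with 10% serum, drug for 72 h over a 256-fold dose range (nine 2-fold or five 4-fold steps up to the top dose). Adherent lines were fixed and stained with the nucleic acid dye Syto60, suspension lines read with resazurin; signal relative to control wells, capped at 0 and 100%. One two-parameter sigmoid per drug and line, fitted in a mixed model over all curves with the slope shared within a line.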

| Cell Line | AUC | IC50 [µM] |
| --- | --- | --- |
| OVCA433 (ovary, adherent, top dose 0.25 µM) | 0.664 | 0.0471 |
| SKN-3 (head and neck, adherent, top dose 0.25 µM) | 0.817 | 0.173 |
| YT (lymphoid neoplasm, suspension, top dose 0.25 µM) | 0.547 | 0.0206 |
| OVKATE (ovary, adherent, top dose 0.25 µM) | 0.882 | > 0.25 |
| MHH-PREB-1 (B-cell leukaemia, suspension, top dose 0.25 µM) | 0.476 | 0.0135 |
| U031 (kidney, adherent, top dose 2 µM) | 0.442 | 0.0863 |
| H290 (mesothelioma, adherent, top dose 0.25 µM) | 0.49 | 0.0147 |
| SUP-M2 (anaplastic large cell lymphoma, suspension, top dose 0.25 µM) | 0.701 | 0.0489 |
| G-292 Clone A141B1 (osteosarcoma, adherent, top dose 0.25 µM) | 0.77 | 0.159 |
| IMR-5 (neuroblastoma, adherent, top dose 0.25 µM) | 0.948 | > 0.25 |
| TE-4 (oesophagus, adherent, top dose 0.25 µM) | 0.727 | 0.0688 |
| CTV-1 (acute myeloid leukaemia, suspension, top dose 0.25 µM) | 0.665 | 0.0406 |
| NCI-H520 (lung squamous cell carcinoma, adherent, top dose 0.25 µM) | 0.754 | 0.0866 |
| NCI-H1437 (lung adenocarcinoma, adherent, top dose 0.25 µM) | 0.693 | 0.0556 |
| A427 (non-small cell lung carcinoma, adherent, top dose 0.25 µM) | 0.838 | 0.171 |
| A549 (lung adenocarcinoma, adherent, top dose 0.25 µM) | 0.464 | 0.0123 |
| NCI-H226 (lung squamous cell carcinoma, adherent, top dose 0.25 µM) | 0.906 | > 0.25 |
| KOPN-8 (B-cell leukaemia, suspension, top dose 0.25 µM) | 0.622 | 0.0321 |
| CAL-54 (kidney, adherent, top dose 2 µM) | 0.518 | 0.141 |
| EW-11 (Ewing sarcoma, adherent, top dose 0.25 µM) | 0.749 | 0.102 |

| Cell Line | AUC | IC50 [µM] |
| --- | --- | --- |
| NOS-1 (osteosarcoma, adherent, top dose 0.25 µM) | 0.625 | 0.0374 |
| NCI-H841 (small cell lung carcinoma, adherent, top dose 0.25 µM) | 0.555 | 0.0221 |
| KE-37 (lymphoblastic leukaemia, suspension, top dose 0.25 µM) | 0.596 | 0.0269 |
| D-392MG (glioma, adherent, top dose 0.25 µM) | 0.729 | 0.0903 |
| EW-24 (Ewing sarcoma, semi-adherent, top dose 0.25 µM) | 0.878 | 0.201 |
| SU-DHL-10 (B-cell lymphoma, suspension, top dose 0.25 µM) | 0.53 | 0.0185 |
| Hep 3B2_1-7 (liver, adherent, top dose 0.25 µM) | 0.706 | 0.0595 |
| EB-3 (Burkitt lymphoma, suspension, top dose 0.25 µM) | 0.776 | 0.117 |
| THP-1 (acute myeloid leukaemia, suspension, top dose 0.25 µM) | 0.874 | 0.201 |
| CESS (acute myeloid leukaemia, suspension, top dose 0.25 µM) | 0.891 | 0.218 |
| CHSA0011 (chondrosarcoma, adherent, top dose 0.25 µM) | 0.854 | > 0.25 |
| OVCAR-8 (ovary, adherent, top dose 0.25 µM) | 0.624 | 0.0329 |
| MFE-319 (endometrium, adherent, top dose 2 µM) | 0.081 | < 0.00781 |
| MN-60 (B-cell leukaemia, suspension, top dose 0.25 µM) | 0.799 | 0.126 |
| NCI-H2052 (mesothelioma, adherent, top dose 0.25 µM) | 0.792 | 0.151 |
| PANC-04-03 (pancreas, adherent, top dose 0.25 µM) | 0.726 | 0.104 |
| HOS (osteosarcoma, adherent, top dose 0.25 µM) | 0.558 | 0.0219 |
| ME-1 (acute myeloid leukaemia, suspension, top dose 0.25 µM) | 0.926 | > 0.25 |
| MC-CAR (haematopoietic neoplasm, suspension, top dose 0.25 µM) | 0.517 | 0.0173 |
| HL-60 (acute myeloid leukaemia, suspension, top dose 0.25 µM) | 0.783 | 0.0943 |

| Cell Line | AUC | IC50 [µM] |
| --- | --- | --- |
| RPMI-8226 (myeloma, suspension, top dose 0.25 µM) | 0.591 | 0.0268 |
| EW-18 (Ewing sarcoma, suspension, top dose 0.25 µM) | 0.584 | 0.027 |
| G-402 (soft tissue, adherent, top dose 0.25 µM) | 0.577 | 0.0272 |
| SiHa (cervix, adherent, top dose 0.25 µM) | 0.837 | 0.206 |
| OVCAR-4 (ovary, adherent, top dose 0.25 µM) | 0.696 |  |
| TE-10 (oesophagus, adherent, top dose 0.25 µM) | 0.901 | > 0.25 |
| BICR78 (head and neck, adherent, top dose 0.25 µM) | 0.773 | 0.113 |
| U-118-MG (glioma, adherent, top dose 0.25 µM) | 0.769 | 0.109 |
| H2795 (mesothelioma, adherent, top dose 0.25 µM) | 0.706 | 0.0589 |
| KYSE-50 (oesophagus, adherent, top dose 0.25 µM) | 0.899 | > 0.25 |
| TOV-21G (ovary, adherent, top dose 0.25 µM) | 0.296 | 0.00393 |
| TGW (neuroblastoma, adherent, top dose 0.25 µM) | 0.731 | 0.0633 |
| SK-N-FI (neuroblastoma, adherent, top dose 0.25 µM) | 0.809 | 0.129 |
| NCI-H1417 (small cell lung carcinoma, suspension, top dose 0.25 µM) | 0.789 | 0.134 |
| KG-1 (acute myeloid leukaemia, suspension, top dose 0.25 µM) | 0.874 | 0.199 |
| BT-474 (breast, adherent, top dose 0.25 µM) | 0.845 | 0.213 |
| OE19 (oesophagus, adherent, top dose 0.25 µM) | 0.857 | 0.247 |
| KYSE-450 (oesophagus, adherent, top dose 0.25 µM) | 0.712 | 0.0595 |
